Whole data set: some 33,000 sequences, median “E-score (-0.5 to 0.5)” near -0.012, cut for the highest 2% near 0.27. The list shows a part of the results.
These sequences were tested against T1, Vhr1 (UniProt P40522) (assay: PBM E-score (8-mer binding enrichment) (E-score (-0.5 to 0.5)); higher = stronger / more preferred TF binding; most listed sequences are background and not binding sites). Conditions: protein concentration: 200 nM; construct: GST-full length.
T1 sequence: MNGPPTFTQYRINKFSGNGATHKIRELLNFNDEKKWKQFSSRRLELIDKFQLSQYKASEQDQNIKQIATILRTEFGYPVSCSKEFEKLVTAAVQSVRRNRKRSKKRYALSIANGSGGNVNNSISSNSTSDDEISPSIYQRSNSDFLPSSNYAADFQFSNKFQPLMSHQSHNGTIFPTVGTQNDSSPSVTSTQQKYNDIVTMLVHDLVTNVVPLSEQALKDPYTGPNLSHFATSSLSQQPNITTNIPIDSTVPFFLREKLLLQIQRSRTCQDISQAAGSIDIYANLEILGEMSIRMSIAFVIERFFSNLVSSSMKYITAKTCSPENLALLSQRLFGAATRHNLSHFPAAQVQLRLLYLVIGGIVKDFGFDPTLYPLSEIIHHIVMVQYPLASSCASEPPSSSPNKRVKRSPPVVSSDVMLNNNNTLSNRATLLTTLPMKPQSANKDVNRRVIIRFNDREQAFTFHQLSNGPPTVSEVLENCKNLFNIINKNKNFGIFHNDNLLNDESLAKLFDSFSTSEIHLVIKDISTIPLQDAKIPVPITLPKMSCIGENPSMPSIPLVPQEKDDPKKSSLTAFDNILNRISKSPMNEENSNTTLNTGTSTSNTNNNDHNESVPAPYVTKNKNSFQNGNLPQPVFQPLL
Procedure, shortened: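 Detection of bound protein used fluorescent anti-GST, with scans normalised by masliner. The proteins were GST-tagged yeast transcription factors applied at about 100-200 nM to universal all-10-mer Agilent arrays made double-stranded by primer extension. Each ungapped eight-base word, pooled with its reverse complement, was scored with an E-score from the Universal PBM Analysis Suite.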

Sequence	PBM E-score
ATGACCTG	0.092
ACGCACCG	0.192
CGTTGCGA	0.0286
CTACTGAG	0.0769
TCCAAAGA	-0.0349
CCTCAATA	-0.0536
ATTACTGA	0.0126
AAGATGTG	0.0243
ACGCCCAC	0.0539
GGACTACC	0.00048
GGTTGTGA	0.143
GGCGTCTA	-0.208
TTAGACAA	-0.116
TAGCTTAA	-0.043
ACTATGCA	0.188
TAATATAA	0.249
GAAGCGCC	0.00289
GCTGACTA	0.324
GACGCAAA	0.0593
AAGGATGC	-0.241
CCTGCTAG	-0.101
ACATCTCG	-0.0449
AGGCATTC	-0.154
AATGAGTG	0.157
ATGCGGTC	-0.0122

Sequence	PBM E-score
CTGATCGC	-0.0109
AAGAATCC	-0.0882
CCATGCGA	0.0318
CCCGCCCC	0.329
ATCACTAA	-0.0231
ACAGGCGC	-0.173
AGCAGAAG	0.0736
GAAGGATA	-0.0495
AAATTATC	-0.00042
CGTTTGAC	-0.0627
GACGTAAC	-0.0416
GTGTAGGA	0.115
AGATTGAC	0.241
CGAGTCAC	0.467
CCGCGAGA	-0.0874
GAGCGCAA	-0.221
TCGTATCA	0.064
GCGGGTTA	0.137
CGCTCCGC	-0.0695
CCAGCACA	-0.0321
TAGGCTAA	-0.169
GTAGTGAA	-0.035
GAACAAAA	0.0736
TCTTTGAA	-0.151
CACTATCA	0.111

Sequence	PBM E-score
ATTTCTAG	-0.259
ACCCAGGA	-0.00244
CCCACATA	0.107
CAGTTCAA	0.00019
AACCAAAA	0.0587
ATCCTTTA	0.00087
ATTTATGA	0.101
ACGGTTAA	-0.0459
ATGATCGG	0.0799
GTGTATGA	0.156
AGAGGTAT	0.144
CACGCGAA	-0.0722
CACAAGTG	-0.144
AATCTGCA	0.0587
TAAGTCTA	-0.165
GCACTGAA	-0.0863
ATCAGCTC	0.0903
ATGTAGTA	0.0473
CGGCCCCC	-0.109
CTTTAGGA	-0.0625
TGTTGAAA	-0.0954
CTAACCCA	0.205
TGTGAGAA	0.0282
TCCACCCA	0.111
GAGAGTCA	0.43

Sequence	PBM E-score
ACGGGATC	0.0824
CAGCACGA	0.128
GAACGGCA	0.0247
GCCGCTAC	0.028
AGTATGTG	0.224
CACGTAAC	-0.0713
GGGATTTA	-0.29
ATGAGCTA	0.101
AAGCTGTG	-0.00453
ACCATCAT	0.209
GTTAAATA	-0.176
AATCCTAC	-0.159
CATCAAGC	0.00939
AGTCCAGC	-0.0848
ATTCGGCA	-0.0363
CCATAACA	0.121
AGTCTTAA	-0.136
ATTTCTAA	-0.352
AGCGCGAC	0.0938
CCCAGAAC	-0.00576
ATTGGGTC	0.0626
CTAGCTAA	0.0696
ACCGCTCG	0.0855
GTTGAGTA	0.147
CGGAGTTC	0.0825

Sequence	PBM E-score
AATTGTGA	-0.00733
AGTCCCAA	0.0517
CGATTCCA	0.0812
AACATTCC	-0.195
AACCTTTG	-0.194
GGCCGCCC	0.0955
GGTTAACC	0.152
AAGCGTCA	-0.0962
ATGAAACC	0.137
CGAGGTTC	0.0424
AGGTTACC	0.0706
GTCGCAAA	0.0617
ATCCTCTC	-0.133
GGGAGGCA	-0.0882
ACAAAGAT	-0.061
AGGCTGTA	-0.0542
CGTACCCC	0.225
CGTTCCGA	-0.0715
ACCCTACG	-0.0219
AGTCATAC	0.407
ACCGGGAT	0.168
GCACATCC	0.116
CCACAACA	0.00513
ACACCGGT	-0.0115
ACATGGAA	0.0558

Sequence	PBM E-score
CGACCAGC	0.0387
ACATTATC	0.115
AATTCCTA	0.103
CTAGGCAG	-0.0785
ACGGTACC	-0.0221
ATGTACAA	0.00877
CGCTCCTC	-0.252
TAACCAGA	-0.0941
ACTGCCAT	-0.0286
ACAATATA	0.221
CTATGCAA	-0.0565
CTCCAGTA	0.0593
GCTGTGTA	0.239
CTCTAAGC	-0.0218
ACAAAGAC	-0.0296
CATAGGGA	0.0674
CCCCCTCA	-0.317
ATGCGAGC	0.104
ACTCTGCT	-0.124
CCACACTC	-0.0226
GCACGTAC	-0.0574
ACACTTTC	-0.0279
ATACAAAA	0.108
CATCAGTC	0.124
ACCTAGGC	-0.155

Sequence	PBM E-score
ACGCAGTG	-0.0361
ACCCCAAC	-0.0535
ACGTGGAT	0.0503
CCGAATAG	-0.0344
TTCCCGAA	-0.0124
TCCTACGA	-0.078
AAGCTCTC	-0.207
AGTGGGGA	0.0039
ATATATAA	0.247
AAATTGAC	-0.0349
CCTTTTAG	-0.228
CCCGTATA	-0.046
ATGTCTCA	0.297
ATATTTTG	0.0404
ACTGTGTA	0.246
AGTTACTC	0.0219
ACGCTATA	-0.207
TCAGAAGA	-0.227
GTCTAGTA	0.00945
ATGGCTGC	0.00596
ACGGAACG	0.0232
ACTAGTTA	0.0376
CCTAATAC	-0.0139
CAGTGGCC	-0.0187
CCCCTTGC	-0.104

Sequence	PBM E-score
CAAATAGC	-0.259
CTCCTGTA	0.15
ACGACCGC	-0.112
CTTATAAA	-0.0532
CGCAAACA	0.215
AGATTGCG	0.00995
GCGCGCTA	0.08
GTATCTCA	0.209
CACCGTCA	9e-05
GGTCGAAC	0.00191
AAGGTCGA	0.0716
GGTAGTAA	-0.193
CCACAACG	0.0129
TATCCGGA	0.035
GCCGTAAA	-0.139
CAATCGTG	0.0174
CCGGGGCG	0.0969
CATCCACG	0.158
GCCATGCA	0.0792
ATTCTTTA	-0.0759
CAGAGCTG	0.123
AATCAGAC	0.201
CTGGGAAA	-0.091
AGTCATAA	0.344
GGAGAAAA	-0.292

Sequence	PBM E-score
AGATGACA	0.0194
TCATCTAA	0.0171
ATAAATGA	0.0874
GGATACCC	0.0288
CGCGTCCA	-0.0119
CGCCTTTC	-0.197
CCGAGTCC	0.144
AAGATGCA	-0.00472
TAATTGAA	-0.232
AGACGAAA	-0.0833
CCAGCGCC	-0.0357
AATCCCAT	-0.0448
CGAGATCG	-0.00314
GATCCCGC	0.129
AGCTTCAT	0.07
CGACCCGC	0.0268
CCATATCA	0.0898
ACGCCTGG	0.172
GTTTTTTA	-0.121
CGGGCAAC	-0.0522
GTACCACA	0.0851
CATAATAG	0.158
AACTTTAC	-0.182
ATGCACCA	-0.0664
AAGCGAAT	0.14

Sequence	PBM E-score
CCGGTAGG	-0.0639
GCTTCTCA	-0.102
CACTCGGC	0.0851
AGTCTTTC	-0.0189
CCTCGGGA	-0.0287
AACTACTC	0.19
AGACATAT	0.16
CACTCGTC	-0.0397
GAACTACA	0.0295
GTGATCCA	0.00284
AAAGCCGG	0.033
CCCGACGG	-0.0105
ATAAGTTC	-0.00316
TATCGCCA	-0.0719
CATCACAA	0.0244
TATCGACA	0.126
ACAAGTCT	-0.0553
GCCCTTAA	-0.203
GAAGGGTC	-0.29
AGCGGCGC	-0.158
CGACATCA	0.0119
GGGAGCCA	0.108
AGATAGTA	0.113
GCGGCCTA	-0.00531
AACAAGAG	-0.078

Sequence	PBM E-score
CATGCCAC	0.102
AAAATTAA	-0.319
CTTTCACA	-0.0605
TACGTGAA	-0.155
CTAAGGGA	-0.0527
AATGCCTG	-0.13
AGCGGTCC	-0.076
CTACTCAG	0.153
GAACGGTC	0.0379
TCTTTTCA	-0.176
ACGCTCCC	-0.108
AAGCCATA	-0.00918
CTATGTAC	0.0252
GAGACGGC	0.0617
CGGCACCA	0.035
GATTAAGA	0.131
AATACCAA	0.144
GGATCAGA	-0.0527
AACTAATC	0.143
ATTACCAC	0.0687
AGGAAAAT	-0.159
AATATATC	0.101
GAAGCTTA	-0.257
AACTGACA	-0.00603
ATCAGTCA	0.306

Sequence	PBM E-score
ATGAACTC	0.139
CTCTTAGC	-0.0998
GAATAACA	0.171
AGGTTTGG	-0.0629
ACAAGTCC	-0.182
ATCTAGAT	-0.0279
CAGTGCCA	-0.151
ACCGGAGT	0.163
GGCTTTAC	-0.0288
AGGAGAAA	-0.178
CTCTATGA	-0.0312
AAATTGCG	0.0184
AATAGACA	-0.0158
GACCACTA	0.178
GTGTACAA	-0.0101
ATCATGGC	0.143
ACATGTCG	0.0102
GGCGCTGA	-0.033
AGTCGTCC	0.191
ACTGCCAC	0.0455
AAGCATAC	0.0271
GTTTTCAA	-0.143
GGAGCATA	0.154
CCGCCACG	0.0872
CACCGTTC	-0.138

Sequence	PBM E-score
ACTATGGG	0.00269
ACTTGGTC	0.0528
CTATCATC	0.0643
ACTGAGGG	-0.00904
CGGTCCAA	-0.203
ATAAAGCA	-0.153
ATATCAAG	0.128
CATACAGG	-0.0305
AGATGTAA	-0.128
CCCCTGAG	0.0777
AATCGTTA	-0.215
TCCACGGA	0.0343
ATATGCCC	-0.181
AGGAACTA	-0.159
ATGCCAGG	0.0307
ATAGGAAG	0.0182
CGTGATCA	0.0904
GATGACCC	0.197
ACTCGAAC	0.0259
AGACTGCG	-0.0524
CCAGCTCC	-0.12
GAATTGCA	-0.182
ATACCTAC	0.04
GCTTGAGA	-0.202
AGTACGGC	0.138

Sequence	PBM E-score
ATAGTTTA	0.017
CTAGACGA	-0.217
ACACCGGG	0.093
AGACTGGG	0.146
TATTCTGA	-0.0375
CTATGGAG	-0.029
AAGTTTAC	-0.0802
GGGTGCAA	0.0775
TAAAGATA	-0.0185
GGGAAAGA	-0.185
GTCAATGA	0.00946
CTGAGATA	-0.128
ACTGAGCT	-0.0929
AAAGACTT	-0.315
CAAGGCGC	0.0922
AAAATGCG	-0.134
TAGTAAAA	0.0646
ATCAAGTA	0.0754
CCATACGA	0.0408

Reference: the supplement of paper PMC3334620
